Out of some 310,000 compounds screened, about 18,000 (5.8%) were called active. The inconclusive results got no clear call from the source; some entries with a clear call stand among them for comparison. Calls follow the shape of the dose curve; as a rule, active = well fitted inhibition curve with a large enough effect; inconclusive = small, poorly fitted or top-dose-only effect, or another doubt; inactive = no such curve, though single readings can be large or run the other way. No potency is given beside an inconclusive call; the fits are too rough.
assay: Primary qHTS for delayed death inhibitors of the malarial parasite plastid, 48 hour incubation; settings: P. falciparum luciferase growth in erythrocytes; series mostly up to 28.7 µM; activity change, negative = inhibition: at the top concentration
In short: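 First compound was added to culture medium, then infected red cells at 0.1% parasitemia and 2% hematocrit (final). After incubation at 37 C under 5% CO2, luciferase detection reagent was dispensed and light output recorded.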
% is scaled to controls: 0 for no effect and ±100 for the full control effect; potency is read from the fitted curve at half-maximal effect; tags tell the direction and shape of the fitted curve.

| SMILES | Potency | activity change, negative = inhibition |
| --- | --- | --- |
| COc1ccc(OC)c(N2C(N)=C(C#N)C(c3ccc(OC)c(O)c3)C3=C2CC(C)(C)CC3=O)c1 (configuration not stated) | inconclusive [inhibitor, partial curve] |  |
| COc1ccc(C(=O)NCC(=O)N2CC=C(c3ccccc3)CC2)cc1OC | inconclusive [inhibitor, single point] |  |
| NC1CCCCC1N=Cc1c(O)n(CCc2ccc(F)cc2)c(=O)[nH]c1=O (configuration not stated) | inconclusive [inhibitor, partial curve, poor fit] |  |
| C=CCn1cc(/C=C/c2cc[n+](C)cc2)c2ccccc21 | inconclusive [inhibitor, full curve] |  |
| COc1ccc(S(=O)(=O)N2CCCCC2)cc1NC(=O)C1COc2ccccc2O1 (configuration not stated) | inconclusive [inhibitor, single point] |  |
| CC(C)C(=O)NCCc1nc2ccccc2n1CCCOc1ccc(Cl)cc1 | inconclusive [inhibitor, single point] |  |
| O=C(O)Cc1sc(Nc2cccc3ccccc23)nc1-c1ccccc1 | inconclusive [inhibitor, single point] |  |
| COc1ccc(C(=O)Nc2ccccc2N2CCCCC2)cc1[N+](=O)[O-] | inconclusive [inhibitor, full curve, poor fit] |  |
| CC1CCC(NC(=O)c2cc(S(=O)(=O)N3CCCCC3)c[nH]2)CC1 (configuration not stated) | inconclusive [inhibitor, partial curve, poor fit] |  |
| CC1(c2ccccc2)NC(=O)N(CC(=O)Nc2ccccc2C(=O)N2CCCCC2)C1=O (configuration not stated) |  | inactive: -16.4% |
| O=c1[nH]c2cccnc2n(CCNc2ncc(C(F)(F)F)cc2Cl)c1=O | inconclusive [inhibitor, partial curve, poor fit] |  |
| CCOC(=O)c1[nH]c2ccc(OC)cc2c1NC(=S)N1CCN(c2ccccc2)CC1 | inconclusive [inhibitor, partial curve, poor fit] |  |
| CC(=O)c1c(C)[nH]c(C(=O)OCCOc2ccccc2)c1C |  | inactive: 466% |
| COc1ccc2c(Cl)c(C(=O)N/N=C/c3cccnc3)sc2c1 | inconclusive [inhibitor, partial curve] |  |
| Cc1ccc(N(C(=O)c2ccco2)C(C(=O)NC2CCCC2)c2cccnc2)cc1C (configuration not stated) | inconclusive [inhibitor, partial curve, poor fit] |  |
| Cc1cccc(NC(=O)Nc2ccc(F)cc2)n1 |  | inactive: 62% |
| C=CCn1c(SCc2ccc(C(=O)Nc3nccs3)cc2)nnc1-c1ccc(C)c(Cl)c1 | inconclusive [inhibitor, single point] |  |
| COc1ccccc1CNC(=O)Cn1c(=O)oc2cc(S(=O)(=O)N3CCCC3)ccc21 | inconclusive [inhibitor, full curve, poor fit] |  |
| CCOc1ccc(-c2cn(S(=O)(=O)c3cccc4nsnc34)nc2N)cc1 | inconclusive [inhibitor, single point] |  |
| COc1ccc(-n2nc(C(=O)NCC(=O)N(C)Cc3ccccc3)c3ccccc3c2=O)cc1 | inconclusive [inhibitor, single point] |  |
| Cc1cc(C)cc(N(CCC(=O)O)S(=O)(=O)c2ccc3ccccc3c2)c1 | inconclusive [inhibitor, partial curve, poor fit] |  |
| COc1cccc(CC2(CO)CCCN(Cc3ccc(OC)c(C)c3OC)C2)c1 (configuration not stated) | inconclusive [inhibitor, single point] |  |
| Fc1ccc(-c2nnn(Cc3nc4ccccc4s3)n2)cc1 |  | inactive: 26.7% |

| SMILES | Potency | activity change, negative = inhibition |
| --- | --- | --- |
| Cc1ccc(CNC(=O)N2CCN(c3ccc(C)cc3)CC2)cc1 | inconclusive [inhibitor, partial curve, poor fit] |  |
| CCOC(=O)N1CCN(S(=O)(=O)c2ccc(C(=O)Nc3nc4c(s3)CC(C)CC4)cc2)CC1 (configuration not stated) | inconclusive [inhibitor, single point] |  |
| O=c1c2c3nc4ccccc4nc3n(-c3cccc(F)c3)c2ncn1Cc1ccc2c(c1)OCO2 |  | inactive: 0% |
| O=C(NC1CCCCC1)c1n[nH]c2c1CCCCC2 | inconclusive [inhibitor, single point] |  |
| COC(=O)CCC(=O)Nc1ccc(Br)cc1 |  | inactive: 12% |
| O=C(c1cccs1)N1CCN(Cc2ccccc2)CC1 |  | inactive: 1.72% |
| CCCCCCCC/C=C\CCCCCCCC(=O)NCCc1ccc(O)c(O)c1 | active: 10.4 µM |  |
| O=C(c1ccccc1)c1ccc(OCC(O)CN2CCCC2)cc1 (configuration not stated) |  | inactive: 4.24% |
| COc1ccc(N2CCN(C(=O)Cc3ccc(Br)cc3)CC2)cc1 | inconclusive [inhibitor, partial curve, poor fit] |  |
| O=C(CSc1ncn[nH]1)Nc1ccc(OCc2ccccc2)cc1 |  | inactive: 228% |
| CN(C)c1ccc(NC(=O)Nc2csc3ccccc23)cc1 | inconclusive [inhibitor, partial curve, poor fit] |  |
| CSC1=NC2(CC(c3ccccc3)Oc3cc(O)ccc32)CC(C)(C)N1 (configuration not stated) | inconclusive [inhibitor, single point] |  |
| COc1ccc(-n2c(Cc3cccn3C)nnc2SCC(=O)Nc2ccccc2F)cc1 | inconclusive [inhibitor, single point] |  |
| O=C(COc1cccc(NC(=O)c2cccs2)c1)c1ccc(F)cc1 |  | inactive: -25.5% |
| CCOc1cc(CNC2CCCC2)c(Cl)cc1OCC(=O)Nc1ccccc1 | active: 10.4 µM |  |
| Cc1nc2ncnn2c(C)c1CCC(=O)Nc1ccc(S(=O)(=O)N2CCCCCC2)cc1 | inconclusive [inhibitor, single point] |  |
| NC(=O)CC(NC(=O)c1ccc(Br)cc1)c1ccc(NCCc2ccc(F)cc2)c([N+](=O)[O-])c1 (configuration not stated) | inconclusive [inhibitor, single point] |  |
| CCCC(=O)c1cc(F)c(N2CCN(C(=O)OCC)CC2)cc1C | inconclusive [inhibitor, single point] |  |
| C[n+]1cn(/N=C/c2ccccc2)c2ccccc21 | inconclusive [inhibitor, single point] |  |
| Cc1cc(OCC(=O)Nc2ccc(S(=O)(=O)N3CCN(C)CC3)cc2)ccc1Cl | active: 4.15 µM |  |
| CN(C)c1ccc(C(=O)Nc2ccc(CN3CCS(=O)(=O)CC3)cc2)cc1 |  | inactive: 7.11% |
| O=C(OCc1ccccc1)N1CCOCCN(C(=O)OCc2ccccc2)CCOCC1 | inconclusive [inhibitor, partial curve, poor fit] |  |
| CCOC(=O)CSc1nnc(NC(=O)NC(C)C)s1 | inconclusive [inhibitor, single point] |  |

| SMILES | Potency | activity change, negative = inhibition |
| --- | --- | --- |
| COc1cc(C(=O)N2CCN(S(=O)(=O)c3ccc(C)cc3C)CC2)ccc1OCC(=O)N1CCOCC1 | inconclusive [inhibitor, single point] |  |
| COc1cccc(C(=O)CN2C(=O)C(C)(C)Oc3ccc(C(=O)N4CCCCCC4)cc32)c1 | inconclusive [inhibitor, full curve, poor fit] |  |
| CC[n+]1ccc(/C=C/c2ccc(N(C)C)cc2)c2ccccc21 | active: 0.586 µM |  |
| O=C1c2ccccc2C(Nc2ccc3c(c2)OCCO3)N1Cc1ccc2c(c1)OCO2 (configuration not stated) | inconclusive [inhibitor, partial curve] |  |
| O=C(Nc1ccccc1N1CCOCC1)C1=NN(c2ccccc2)C(=O)CC1 | inconclusive [inhibitor, partial curve, poor fit] |  |
| O=C(CN1CCN(c2ccccc2)CC1)NC(=O)NCc1ccco1 |  | inactive: -5.77% |
| Cc1cc(C(=O)OCC(=O)N2CC(C)OC(C)C2)ccc1[N+](=O)[O-] (configuration not stated) |  | inactive: 29% |
| CCC(CC)=NNc1cccc([N+](=O)[O-])c1 | inconclusive [inhibitor, single point] |  |
| O=C(Nc1ccc([N+](=O)[O-])cc1)/C(=C/c1cccc([N+](=O)[O-])c1)NC(=O)C1CCCCC1 | inconclusive [inhibitor, single point] |  |
| CN(C)c1ccc(CN(C(=O)c2ccco2)C2CCS(=O)(=O)C2)cc1 (configuration not stated) |  | inactive: 55.6% |
| COc1ccc(N(C)C(=O)CN(C)S(=O)(=O)c2ccc3c(c2)c(=O)n(C)c(=O)n3C)c(OC)c1 |  | inactive: -13.4% |
| CC1CN(c2nc3c(c(=O)n(C)c(=O)n3C)n2Cc2c(F)cccc2Cl)CC(C)O1 (configuration not stated) | inconclusive [inhibitor, partial curve, poor fit] |  |
| O=C(CSc1n[nH]c(-c2ccccn2)n1)Nc1ccc(F)cc1 | inconclusive [inhibitor, single point] |  |
| COc1ccc(NC2=NC3(CCCCC3)N=C(N)N2)cc1 | active: 0.928 µM |  |
| COc1ccc2[nH]c3c(N4CCN(Cc5ccc6c(c5)OCO6)CC4)ncnc3c2c1 | active: 4.15 µM |  |
| COc1ccc(NC(=S)N2CCN(S(=O)(=O)c3ccc(F)cc3)CC2)cc1OC | inconclusive [inhibitor, single point] |  |
| COc1cccc(-c2ccc(NC(=O)C3CCCN(Cc4cnn(C(C)C)c4)C3)cc2)c1 (configuration not stated) | inconclusive [inhibitor, single point] |  |
| COc1cccc(-c2c(C(=O)N/N=C/c3ccc(C)s3)nnn2-c2nonc2N)c1 | active: 10.4 µM |  |
| COc1ccc(N(C(=O)CCl)C(C(=O)NCCc2ccccc2)c2cccs2)cc1Cl (configuration not stated) | active: 9.28 µM |  |
| CC(C)(C)n1cnc2cc(NCc3cccs3)ccc21 |  | inactive: 196% |
| COCCOC(=O)c1c(NC(=O)COC(=O)Cc2cccc(OC)c2)sc(C(N)=O)c1C |  | inactive: 4.15% |
